Here are results for 40 molecules from the antibiotic and cytotoxicity screens of Wong et al. (2023).

SMILES strings stand for the structures. This is one part of the list.

The subject of the assay is HSkMC (human skeletal muscle cells). Nature of the assay: cytotoxicity call (relative viability < 0.9). The settings on record: 10 µM.
`COc1ccc([Si](C)(C)[C@@H]2[C@@H](CCOC(=O)NCCCCCC(=O)NO)O[C@@]3(C(=O)N(Cc4ccccc4)c4ccc(NC(=O)[C@@H](C)OC(=O)NCCCCCC(=O)NO)cc43)[C@H]2C)cc1`: the cytotoxicity call was “inactive”.
On to `CN(C)CCNC(=O)[C@H]1CN(Cc2cnn(C)c2)Cc2ccnn2C1`, for which the cytotoxicity call was “inactive”.
Turning to `COCC#Cc1ccc2c(c1)O[C@H](CN(C)Cc1ccc(F)cc1)[C@H](C)CN([C@@H](C)CO)S2(=O)=O`, the cytotoxicity call is “inactive”.
In the case of `COc1ccc(S(=O)(=O)N(C)C[C@@H]2Oc3ccc(NC(=O)Cn4cnnn4)cc3C(=O)N([C@H](C)CO)C[C@H]2C)cc1` it was “inactive”; in that of `Cc1ccc(S(=O)(=O)Nc2ccc3c(c2)C(=O)N([C@@H](C)CO)C[C@@H](C)[C@@H](CN(C)C(=O)Nc2cccc4ccccc24)OCCCC[C@H](C)O3)cc1`, “inactive”; in that of `Cc1ccc(S(=O)(=O)Nc2ccc3c(c2)C(=O)N([C@H](C)CO)C[C@H](C)[C@@H](CN(C)Cc2ccc(C(F)(F)F)cc2)OCCCC[C@@H](C)O3)cc1`, “inactive”.
For the molecule `C[C@@H]1O[C@@H](Oc2c(-c3cc(O)c(O)c(O)c3)oc3cc(O)cc(O)c3c2=O)[C@H](O)[C@H](O)[C@H]1O`, the cytotoxicity call was “inactive”.
In the case of `COc1ccc(S(=O)(=O)N(C)C[C@@H]2OCCCC[C@@H](C)Oc3ccc(NC(=O)CCC(F)(F)F)cc3C(=O)N([C@@H](C)CO)C[C@@H]2C)cc1` it was “inactive”.
On to `COc1ccc(NC(=O)N(C)C[C@H]2OCCCC[C@H](C)Oc3ccc(NS(=O)(=O)c4c(C)noc4C)cc3C(=O)N([C@@H](C)CO)C[C@@H]2C)cc1`, for which the cytotoxicity call is “inactive”.
For `C[C@@H]1CCCCO[C@H](CN(C)S(C)(=O)=O)[C@@H](C)CN([C@@H](C)CO)C(=O)c2cc(N(C)C)ccc2O1` the value was “inactive”; for `COc1ccc([C@H]2CNCCN2)cc1`, “inactive”; for `C[C@H]1CN([C@@H](C)CO)C(=O)c2cccc(NC(=O)c3ccncc3)c2O[C@H]1CN(C)S(=O)(=O)c1ccccc1`, “inactive”.
In the case of `O=S1(=O)CC=CC1` it was “inactive”.
For the molecule `CC(=O)N1Cc2cc(C(=O)NCC(F)(F)F)nc(-c3cccc(-c4cc5ccccc5o4)c3)c2[C@H]1CCO`, the cytotoxicity call was “inactive”.
In the case of `C[C@@H]1CCCCO[C@H](CN(C)S(=O)(=O)c2ccc(F)cc2)[C@H](C)CN([C@@H](C)CO)C(=O)c2cc(NC(=O)NC3CCCCC3)ccc2O1` it was “inactive”; in that of `C[C@H]1CN([C@@H](C)CO)C(=O)c2cccc(NC(=O)Nc3ccccc3)c2O[C@@H]1CN(C)Cc1ccc(Oc2ccccc2)cc1`, “active”.
As to `COc1cc(CO)cc(I)c1O[C@H]1C=C(C(=O)NCCO)C[C@@H](NCc2ccc(F)cc2)[C@@H]1O`, the cytotoxicity call was “inactive”.
For `C=CCOC(=O)[C@@H]1[C@H]2C(=O)O[C@H](c3ccccc3)[C@H](c3ccccc3)N2[C@H](c2ccc(OCCOC(=O)[C@@H]3C[C@@H]4C(=O)N5CCC[C@H]5C(=O)N4[C@@H]3c3ccc(O)cc3)cc2)[C@@]12C(=O)Nc1ccccc12` the value was “inactive”.
In the case of `Cc1ccc(S(=O)(=O)Nc2ccc3c(c2)C(=O)N([C@H](C)CO)C[C@H](C)[C@H](CN(C)C(=O)Cc2ccccc2)OCCCC[C@H](C)O3)cc1` it was “inactive”; in that of `C[C@H]1CCCCO[C@H](CN(C)C(=O)Nc2ccc(C(F)(F)F)cc2)[C@@H](C)CN([C@@H](C)CO)C(=O)c2cc(NS(=O)(=O)c3ccc(Cl)cc3)ccc2O1`, “inactive”; in that of `COCC#Cc1ccc([C@@H]2[C@@H](CO)N3C(=O)CN(C(=O)C4CCOCC4)C[C@H]23)cc1`, “inactive”.
In the case of `Cc1ccc(S(=O)(=O)NC2=NCN(CCN3CCOCC3)CN2)cc1` it was “inactive”; in that of `CO[C@@H]1CN(C)C(=O)c2cc(NS(=O)(=O)CC(F)(F)F)ccc2OC[C@H](C)N(C(=O)c2ccc3c(c2)OCO3)C[C@@H]1C`, “inactive”; in that of `CC(C)OC(=O)[C@H](C)N[P@](=O)(OC[C@H]1O[C@@H](n2ccc(=O)[nH]c2=O)[C@@](C)(O)[C@@H]1O)Oc1ccccc1`, “inactive”.
Regarding `COc1cccc(S(=O)(=O)Nc2ccc3c(c2)[C@@H]2C[C@@H](CC(=O)NCc4ccccc4F)O[C@H](CO)[C@@H]2O3)c1`, the cytotoxicity call is “inactive”.
In the case of `COCCOC(=O)N1C(=O)[C@@]2(c3cc(C#CC4(O)CCCCCC4)ccc31)[C@H](c1ccc(OCCO)cc1)N1[C@H](c3ccccc3)[C@H](c3ccccc3)OC(=O)[C@H]1[C@@H]2C(N)=O` it was “inactive”.
In the case of `COc1ccc([Si](C)(C)[C@@H]2[C@@H](CC(=O)N3CCC[C@H]3CO)O[C@]3(C(=O)N(Cc4cccc(N5C(=O)c6cccc7cccc5c67)c4)c4ccccc43)[C@H]2C)cc1` it was “inactive”.
For `COc1ccc(S(=O)(=O)Nc2ccc3c(c2)C(=O)N([C@@H](C)CO)C[C@@H](C)[C@@H](CN(C)C(=O)Nc2cccc4ccccc24)O3)cc1` the value was “inactive”; for `C[C@H]1CN([C@@H](C)CO)C(=O)c2cc(C#Cc3ccccc3F)cnc2O[C@@H]1CN(C)C(=O)c1ccc2c(c1)OCO2`, “inactive”; for `CC(=O)OC[C@H]1O[C@@H](n2cc(C)c(=O)[nH]c2=O)C[C@@H]1OC(C)=O`, “inactive”.
Regarding `COc1ccc(NC(=O)N[C@H]2CC[C@@H](CCNC(=O)CN3CCOCC3)O[C@@H]2CO)cc1`, the cytotoxicity call is “inactive”.
Consider `CNC(=O)C[C@@H]1CC[C@H]2[C@@H](COC[C@H](O)CN2C(=O)c2ccc3c(c2)OCO3)O1`, for which the cytotoxicity call is “inactive”.
In the case of `C=CC1=C(C(=O)O)N2C(=O)C(NC(=O)C(=NO)c3csc(N)n3)C2SC1` (stereo not given) it was “inactive”; in that of `C[C@H]1CCCCO[C@H](CN(C)Cc2ccncc2)[C@@H](C)CN([C@@H](C)CO)C(=O)c2cc(NC(=O)NC3CCCCC3)ccc2O1`, “inactive”; in that of `Cc1ccc(S(=O)(=O)N(C)C[C@H]2OCCCC[C@@H](C)Oc3ccc(NC(=O)Nc4ccc(C(F)(F)F)cc4)cc3C(=O)N([C@H](C)CO)C[C@@H]2C)cc1`, “inactive”.
For `C[C@@H]1CCCCO[C@@H](CN(C)C(=O)c2ccncc2)[C@H](C)CN([C@@H](C)CO)C(=O)c2cc(NS(=O)(=O)c3ccc(Cl)cc3)ccc2O1` the value was “inactive”.
In the case of `O=C(Cc1ccccc1)Nc1ccccc1Sc1ccccc1` it was “inactive”; in that of `Cc1noc(C)c1NC(=O)Nc1ccc2c(c1)C(=O)N([C@H](C)CO)C[C@H](C)[C@H](CN(C)Cc1ccc(C(=O)Nc3ccccc3N)cc1)OCCCC[C@@H](C)O2`, “inactive”.
Turning to `CC(=O)N(C)CCc1ccc(C)[n+]([O-])c1`, the cytotoxicity call is “inactive”.
On to `CN(C)CCCCNC(=O)[C@@H]1C[C@@H]2C(=O)N[C@@H](CCCC[N+](C)(C)C)C(=O)N2[C@@H]1c1cccc(OCCO)c1`, for which the cytotoxicity call is “inactive”.
